Measured values published in the supplement of paper PMC7826260.
The list shows a part of the results. Viral Rep nickase domains cut single-stranded DNA in vitro (1 h at 37 °C, 3 µM enzyme); the outer parts of the 90-letter strands are left off. Numbers give uncut DNA relative to the enzyme-free pool, as log2; uncut sequences lie near 0, cut ones below; no hit call is given. Shares of all reads are compared; uncut strands gain when others are lost, and binding without cutting may add a little.

Each sequence was assayed on T1, Rep nickase domain of tomato golden mosaic virus (assay: uncleaved DNA left, log2 of reads against the no-enzyme library (log2 ratio); higher = less cleavage (more negative = more Rep cleavage of the k-mer); sequences stand for … in CTCGTCCG…ACCGGAGA).
T1 sequence (Rep 1-124, printed without the tag): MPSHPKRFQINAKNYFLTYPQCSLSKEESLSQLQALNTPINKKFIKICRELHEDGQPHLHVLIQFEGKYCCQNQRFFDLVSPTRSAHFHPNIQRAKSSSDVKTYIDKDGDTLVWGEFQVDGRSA
Method: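 A pool of 90-nt single-stranded DNAs with seven random bases just before the constant AC of the nick site (name = the seven bases) was cut by 3 µM recombinant His6-SUMO-tagged Rep nickase domain (300 nM DNA, 50 mM HEPES pH 8.0, 50 mM NaCl, 1 mM MnCl2, 1 h, 37 °C, three replicates). Uncut DNA was amplified and sequenced.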

Row | Sequence | uncleaved DNA left (log2)
1 | TACCCTA | -0.184
2 | TTCTGAT | 0.0659
3 | ATAACTT | -0.0411
4 | ACTGTAA | 0.0158
5 | TCCCTTG | -0.117
6 | ACGCCCA | 0.0264
7 | CGCACGC | -0.137
8 | AAGGAAA | 0.188
9 | CGAACTC | -0.139
10 | TATGGCT | -0.181
11 | GCATGAC | 0.0103
12 | GTATTGC | -0.0598
13 | AGGGCCG | 0.0139
14 | GCCAGGG | 0.0251
15 | CAGCATG | -0.0162
16 | CCGTGGA | -0.0581
17 | TGCTCTG | -0.0148
18 | GGGACAT | 0.000714
19 | CGACTCC | -0.112
20 | CATTAAC | -0.0873

Row | Sequence | uncleaved DNA left (log2)
21 | ATGGATC | 0.0345
22 | GGCACTC | -0.126
23 | TCTACCC | -0.263
24 | ATAACAG | 0.0819
25 | GCGGTGT | -0.149
26 | TCGAATA | 0.00823
27 | ACTGATC | 0.0616
28 | TACCGCG | 0.031
29 | AAGGCTT | 0.173
30 | GGACTGT | 0.0217
31 | GTATAAT | 0.14
32 | CCGATGC | -0.0502
33 | CTCCCTA | -0.0651
34 | TTACTCC | -0.0939
35 | TTTGCTG | -0.0532
36 | TCGGCCC | -0.0578
37 | AATCTGT | -0.0445
38 | GGAAGCG | -0.0373
39 | GTTCTGT | -0.002
40 | TTACCGC | 0.0314
